Data from the supplement of paper PMC12217912.
This is one part of the list. The full chains were built here from the parent and the listed change. Inactive controls read about 0.05.

B1: TEV protease; numbered along this chain (parent)
chain: MGESLFKGPRDYNPISSSICHLTNESDGHTTSLYGIGFGPFIITNKHLFRRNNGTLVVQSLHGVFKVKDTTTLQQHLVDGRDMIIIRMPKDFPPFPQKLKFREPQREERICLVTTNFQTKSMSSMVSDTSCTFPSGDGIFWKHWIQTKDGQCGSPLVSTRDGFIVGIHSASNFTNTNNYFTSVPKNFMELLTNQEAQQWVSGWRLNADSVLWGGHKVFMVKPEEPFQPVKEATQL

Variants of: B1
Assay: raw area under fraction-flipped curve 0-4 h after induction (AUC4h, not background-subtracted), DNA-recorder readout of cleavage of the substrate (dimensionless); higher = more cleavage of the substrate by the protease variant
Details: temperature: 34 °C; time window: 0-4 h after rhamnose induction
Experimental: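 In vivo DNA recorder in E. coli TOP10(DE3) ΔrhaA at 34 °C. Each TEVp single-site mutant (parent TEVp 0) is paired with a single-site variant of the 7-mer TEVs (canonical ENLYFQ|S). The substrate sits between flexible linkers in a Bxb1-sfGFP-TEVs-SsrA fusion, so cleavage stabilises Bxb1 and speeds flipping of a recombination array, read by NGS. The value is the raw area under the fraction-flipped curve over 0-4 h after rhamnose induction (AUC4h), with ≥20 reads per time point. It is not background-subtracted; inactive controls average about 0.047.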
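Note: Bxb1 expression induced with 0.2% (w/v) L-rhamnose at OD600 near 0.5, cultures sampled hourly, flipped fraction per protease–substrate barcode pair counted by paired-end Illumina sequencing.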

Row | Variant | area with substrate ENLYFDS | area with substrate ENLYFES | area with substrate ENLYFFS | area with substrate ENLYFIS | area with substrate ENLYFNS | area with substrate ENLYFPS | area with substrate ENLYFSS | area with substrate ENLYFGS | area with substrate ENLYFKS | area with substrate ENLYFMS | area with substrate ENLYFTS | area with substrate ENLYFWS | area with substrate ENLYFYS | area with substrate ENLYFHS | area with substrate ENLYFLS | area with substrate ENLYFVS | area with substrate ENLYFCS | area with substrate ENLYFRS
1 | L5I | 0.0494 | 0.0577 | 0.0642 | 0.0647 | 0.051 | 0.0639 | 0.0492 | – | – | – | – | – | – | – | – | – | – | –
2 | F41E | 0.0397 | – | 0.0581 | 0.0562 | – | 0.0577 | 0.0395 | 0.0293 | 0.0555 | 0.0876 | 0.0634 | 0.0246 | 0.0529 | – | – | – | – | –
3 | P155T | 0.0422 | 0.0609 | – | 0.0594 | – | 0.0647 | – | – | 0.0567 | 0.0488 | – | – | – | 0.0453 | 0.0614 | – | – | –
4 | V58Y | 0.069 | 0.0536 | – | 0.0328 | 0.0522 | 0.0423 | 0.0456 | – | – | 0.0541 | 0.0559 | – | 0.0328 | – | 0.035 | 0.0437 | – | –
5 | V58C | 0.0828 | – | 0.0588 | 0.0605 | 0.0612 | 0.0509 | – | – | – | – | 0.0484 | – | – | – | – | – | – | –
6 | D208A | – | – | – | 0.0679 | 0.0602 | 0.055 | – | 0.0647 | 0.0607 | – | – | – | 0.0645 | 0.0512 | – | – | 0.0509 | –
7 | L61Y | 0.0533 | 0.0749 | 0.0493 | – | 0.0706 | 0.0553 | 0.0656 | 0.0634 | 0.0691 | 0.0498 | 0.0658 | – | 0.0698 | 0.0524 | 0.0598 | – | – | 0.0603
8 | L191N | 0.0399 | 0.0586 | 0.0503 | 0.0559 | – | 0.0501 | 0.0552 | 0.0528 | – | – | 0.0558 | 0.0542 | 0.0527 | – | – | – | – | –
9 | L191H | 0.0567 | 0.0469 | 0.0579 | 0.0508 | – | 0.0608 | 0.0379 | 0.0628 | 0.0477 | – | 0.057 | 0.0649 | 0.0524 | 0.0414 | 0.0547 | – | 0.0484 | 0.0527
10 | K230R | – | 0.0798 | – | – | – | – | – | – | 0.075 | 0.0638 | 0.0535 | 0.047 | – | 0.0684 | – | – | 0.0652 | –
11 | E231K | – | 0.0666 | – | 0.0584 | – | 0.0622 | – | – | – | 0.0584 | – | – | – | 0.0772 | – | – | 0.0572 | 0.0785
12 | E189Q | 0.0064 | – | 0.0678 | 0.0542 | – | 0.061 | 0.0991 | 0.0594 | 0.0588 | 0.0731 | 0.0661 | 0.0865 | – | 0.065 | – | – | 0.0633 | 0.0647
13 | Q74L | – | 0.0645 | – | 0.042 | – | – | – | – | 0.064 | – | – | – | – | 0.0547 | – | – | – | –
14 | G35F | 0.0528 | – | – | 0.0402 | 0.0488 | 0.0453 | – | – | – | – | – | – | – | – | 0.0459 | – | – | 0.0432
15 | D137G | 0.0589 | – | 0.0648 | 0.055 | 0.0719 | 0.0588 | 0.065 | 0.0548 | 0.0596 | 0.0636 | 0.0624 | – | 0.0295 | 0.0598 | 0.0457 | – | – | 0.0565
16 | Q97M | 0.0587 | 0.0808 | 0.045 | 0.0601 | – | 0.0579 | – | 0.061 | 0.0771 | 0.0717 | 0.0542 | 0.0627 | 0.0612 | – | 0.0711 | – | – | –
17 | G166Y | – | – | 0.0602 | 0.0541 | 0.0527 | – | – | – | 0.0603 | 0.0406 | 0.0526 | 0.0292 | – | – | 0.0557 | 0.0404 | 0.0511 | 0.0671
18 | P134A | 0.0725 | 0.0631 | 0.0694 | – | 0.0584 | – | 0.0676 | – | – | – | – | 0.0491 | 0.0528 | – | – | – | – | 0.0639
